Data: patent US9439918B2 (priority 2008, dated 2016)

Test system: S. pneumoniae (ATCC 49619)
Experiment: Time kill curve
Format: cell-based
Details: tested at 2×, 4×, 8×MIC

Compound: CC[C@H]1OC(=O)[C@@](C)(F)C(=O)[C@H](C)[C@@H](OC2OC(C)CC(N(C)C)C2O)[C@@](C)(OC)C[C@@H](C)C(=O)[C@H](C)[C@H]2N(CCCCn3cc(-c4cccc(N)c4)nn3)C(=O)O[C@]12C (stereo partly shown) [CEM-101, 11-N-4-(3-aminophenyl)-[1,2,3]triazol-1-yl]-butyl-5-desosaminyl-3-oxo-2-fluoro-erythronolide A,-11,12-cyclic carbamate]
- Antimicrobial activity (time kill curve): rapid bactericidal activity
